The whole screen tested about 110,000 compounds, of which about 230 (0.21%) showed an effect of 50% or more. The list shows a part of the results.
Molecular target: DPAP1 (Plasmodium falciparum, UniProt Q8IIJ9)
Assay: primary screen, percent inhibition; read by cleavage of a fluorogenic dipeptide substrate; higher = more effect of the substance
Design: species or system P. falciparum D10 trophozoite lysates; single well
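Further: 30 min substrate incubation versus DMSO and 10 µM JCP410 controls.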

Sequence of DPAP1 (Q8IIJ9 whole entry, looked up): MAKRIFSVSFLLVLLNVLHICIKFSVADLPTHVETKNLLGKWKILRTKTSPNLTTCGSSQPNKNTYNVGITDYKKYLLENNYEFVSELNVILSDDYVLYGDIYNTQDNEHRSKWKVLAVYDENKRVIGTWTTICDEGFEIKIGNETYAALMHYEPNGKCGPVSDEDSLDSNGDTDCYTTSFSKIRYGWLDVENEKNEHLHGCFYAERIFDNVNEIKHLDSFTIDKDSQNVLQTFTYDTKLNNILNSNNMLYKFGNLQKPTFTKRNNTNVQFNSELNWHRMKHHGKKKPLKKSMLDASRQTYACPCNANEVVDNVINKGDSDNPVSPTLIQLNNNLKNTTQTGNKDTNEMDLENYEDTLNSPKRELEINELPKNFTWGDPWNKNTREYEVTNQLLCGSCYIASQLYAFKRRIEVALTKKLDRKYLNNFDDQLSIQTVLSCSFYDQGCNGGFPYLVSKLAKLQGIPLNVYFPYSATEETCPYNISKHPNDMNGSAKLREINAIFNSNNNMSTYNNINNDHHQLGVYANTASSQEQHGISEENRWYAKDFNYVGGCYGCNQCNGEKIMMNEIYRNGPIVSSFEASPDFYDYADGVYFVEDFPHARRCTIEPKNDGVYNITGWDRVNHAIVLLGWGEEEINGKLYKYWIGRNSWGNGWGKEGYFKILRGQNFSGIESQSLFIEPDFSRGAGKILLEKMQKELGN

Structure (SMILES) | % Inhibition @ 10 uM [%]
N#CCc1ccc(NS(=O)(=O)c2ccc3c(c2)OCCO3)cc1 | -9.94
CCOc1ccccc1/C=C1/SC(=O)NC1=O | 6.42
CCCN1C(=O)c2oc3cc(C)cc(C)c3c(=O)c2C1c1ccc(C)cc1 (stereo not drawn) | 0.00706
O=Cc1ccc(OC/C=C/COc2ccc(C=O)cc2)cc1 | 1.67
CCC[C@H](NC(=O)C1(NC(=O)N2CCN(C(C)(C)C)CC2)CCCCC1)C(=O)c1nnc(CC)o1 | -4.72
CCN(CC)CCCNC(=O)c1cccc(C)c1 | -3.65
COc1cc(NC(=O)[C@@H]2C[C@@H]2c2ccccc2)c(OC)cc1Cl | 2.23
CC1(C)Cc2c(sc3nc(SCc4ccc5c(c4)OCO5)nc(N)c23)CO1 | -2.34
O=C(CSc1nnc(-c2ccc3c(c2)OCCO3)o1)N1CCCC1 | 7.64
CCOC(=O)c1cnc2c(C)cc(Cl)cc2c1Cl | 2.17
COC(=O)c1nc2n(n1)C(c1ccc(Cl)cc1)C=C(c1ccc(Cl)cc1)N2 (stereo not drawn) | -3.37
O=c1c(C2Nc3ccccc3N=C3CC(c4ccccc4)CC(O)=C32)coc2ccccc12 (stereo not drawn) | 0.751
O=S(=O)(c1cccs1)n1ccnc1 | -1.28
CCN(C(=O)c1sc(N)c(C#N)c1C)C1CCCCC1 | -1.2
CCn1c2ccccc2c2cc(CN3CCN(c4cccc(Cl)c4)CC3)ccc21 | 5.42
COc1ccc2cc3cc(C(=O)NCC4COc5ccccc5O4)sc3nc2c1 (stereo not drawn) | 5.11
COc1cc(CN2CCN(c3cccc(C)c3C)CC2)cc(OC)c1 | 55.4
Cc1ccc(C)c(NC(=O)CN(CCc2ccccc2)S(C)(=O)=O)c1 | -0.0619
CCOC(=O)C1=C(C)OC(N)=C(C#N)C1c1ccc(Cl)c(Cl)c1 (stereo not drawn) | -3.13
C=CCN1C(=O)NC(=O)/C(=C\c2cccc([N+](=O)[O-])c2)C1=O | -5.65
O=[N+]([O-])c1ccc(-c2n[nH]c(-c3ccccc3)n2)cc1 | -4.21
Sc1nnc(CSCc2ccccc2Cl)n1-c1ccccc1 | 2.18
CCCCNC(=O)NC1C(NC(=O)NCCCC)N(C)C(=O)N1C (stereo not drawn) | 0.375
CC1(C)Cc2c(sc3nc(SCC(N)=O)n(Cc4ccccc4)c(=O)c23)CO1 | -3.9
COc1ccc(OC)c(CNC(=O)c2c(N)nc3sc4c(c3c2C(F)(F)F)CCC4)c1 | 1.76
CCCn1c(-c2ccccc2)cn2c3c(=O)n(C)c(=O)n(C)c3nc12 | 0.983

Structure (SMILES) | % Inhibition @ 10 uM [%]
O=C(COc1ccc(Cl)cc1)NCc1nnc(SCC(=O)NCc2ccco2)o1 | 0.163
O=C(c1cnn2c(C(F)(F)F)cc(-c3ccc(Br)cc3)nc12)N1CCCC1 | 0.709
Cc1cc(Cl)ccc1OCc1cc(C2C(C#N)=C(N)OC3=C2C(=O)CCC3)sc1C (stereo not drawn) | -0.25
O=C1CC(c2ccc(F)cc2)N2CCNC2=C1C(=O)Nc1ccccc1 (stereo not drawn) | 6.69
CCCN1CCC(N2CCCCC2C(=O)OCC)CC1 (stereo not drawn) | -1.81
COc1cc(OC)c(C2C3=C(O)CCCC3=NC(C)=C2C(=O)Nc2ccc(C)cn2)cc1OC (stereo not drawn) | -0.968
COc1cccc(C2=NN(C(C)=O)C(c3cc4ccccc4nc3Cl)C2)c1OC (stereo not drawn) | 1.97
CCOc1cc2c(cc1OC)C(c1ccc(CC)cc1)NCC2 (stereo not drawn) | -6.43
CCN1CCC(C#N)(NC(=O)[C@H](Cc2c(F)cccc2F)NC(=O)c2ccc(-c3ccccc3Cl)c(Cl)c2)CC1 | -3.48
Cc1ccc2nc(NC3=NC(=O)C(CC(=O)O)N3)nc(C)c2c1 (stereo not drawn) | -3.33
COc1ccc(C(=O)NCc2cn3ccsc3n2)cc1OC | -4.24
CCc1ccccc1NS(=O)(=O)c1ccc(F)cc1 | 0.526
Cc1nc2sc3c(O)nnnc3c2c(C)c1Br | 0.895
O=c1oc(-c2ccccc2Br)nc2ccccc12 | -2.28
CCN(CC)C(=O)CN1C(=O)C2CC=C(Cl)CC2C1=O (stereo not drawn) | 0.674
CCOC(=O)c1cnc(-c2ccccc2)nc1N(C)C | 1.04
COC(=O)c1cc2sc(Cl)cc2n1Cc1nc(-c2ccccc2)oc1C | -12.7
CCOc1cc(CN2CCCC(C(=O)N(CC)CC)C2)ccc1O (stereo not drawn) | 0.317
COc1ccc(OCCCC(=O)Nc2ccc(Cl)cc2C)cc1 | 3.8
CC(C)CCNC(=O)c1cnc(N2CCCC2)nc1 | -6.91
O=C(NCc1cccnc1)c1cc2nc(-c3ccc(Cl)s3)cc(C(F)(F)F)n2n1 | -0.994
Cc1ccc(S(=O)(=O)c2c(O)nc3cc(C(=O)O)ccc3c2O)cc1 | 2.97
CCOC(=O)c1c(C)[nH]c(C)c1S(=O)(=O)N(C)CC(=O)N(C)Cc1ccccc1 | 1.05
CCOc1ccc(S(=O)(=O)N(CC(=O)NC)c2ccc(C)cc2)cc1 | -3.25
c1cc(C2=NCCO2)cc(C2=NCCO2)c1 | -5.47

From PMC6919601, “Identification of Plasmodium dipeptidyl aminopeptidase allosteric inhibitors by high throughput screening” (PLoS ONE, 2019)
